Laboratory results from PubChem BioAssay AID504466 (National Center for Advancing Translational Sciences (NCATS), 2011).
In all, about 330,000 compounds went through this assay and about 4,200 (1.3%) were called active. Inconclusive means that the source gave no clear call. Such entries were picked first, then a sample of the others. Calls follow the shape of the dose curve; as a rule, active = well fitted activation curve with a large enough effect; inconclusive = small, poorly fitted or top-dose-only effect; inactive = no such curve, though single readings can be large or run the other way. Where the call is inconclusive, the potency comes from a doubtful curve fit.

test: qHTS screen for small molecules that induce genotoxicity in human embryonic kidney (HEK293T) cells expressing luciferase-tagged ELG1; settings: HEK293T ELG1-luciferase reporter, luminescence, 16 h; series mostly up to 46 µM; also: nearly all actives have a fitted effect of over 60% in size
How it was run: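 Step 1: seed 2,000 HEK293T ELG1-luciferase cells per well. Step 2: add compound or DMSO, incubate 16 hr at 37 °C. Step 3: ONE-Glo, 30 min at room temperature, read luminescence.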
Potency is read from the fitted curve at half-maximal effect; tags tell the direction and shape of the fitted curve.

Structure (SMILES) | Potency
Cc1ccc2nc(-c3ccc(NC(=O)COC(=O)c4ccc(=O)[nH]c4)cc3)sc2c1 | active: 2.31 µM
O=C1c2ccccc2/C(=C\C#Cc2ccccn2)N1c1ccccc1 | inconclusive: 20.6 µM [activator, partial curve, poor fit]
O=C(NCc1cccnc1)c1ccc(-c2cc3ccccc3oc2=O)cc1 | inconclusive: 18.3 µM [activator, partial curve, poor fit]
O=C(N/N=C/C(Cl)=C/c1ccc([N+](=O)[O-])cc1)C(=O)Nc1cccc(C(=O)O)c1 | inconclusive: 25.9 µM [activator, partial curve, poor fit]
Cc1cc(C)c(C(=O)CSc2nnc(-c3ccccc3Br)o2)cc1C | inconclusive: 16.4 µM [activator, partial curve, poor fit]
COc1ccccc1C(=O)NCC(=O)N/N=C/c1ccc2c(c1)OCO2 | inactive
COc1ccccc1/C(C)=N/Oc1cc(N)cc([N+](=O)[O-])c1 | inactive
O=C1C2CC=CCC2C(=O)N1Cc1nnc(-c2ccccc2Br)o1 (centres undefined) | inactive
Cc1cc(C)n2c(Nc3ccc4c(c3)OCCO4)c(-c3ccccc3)nc2n1 | inconclusive: 12.6 µM [activator, partial curve, poor fit]
COCC(C)NC(=O)c1noc2c1CCc1cc(OC)ccc1-2 (centres undefined) | inconclusive: 8.2 µM [activator, partial curve, poor fit]
CCN(CC(=O)Nc1ccccc1C(F)(F)F)C(=O)CCS(=O)(=O)c1ccc(C)cc1 | inactive
CCOC(=O)C1CCN(Cc2ccc(OCc3ccccc3)cc2)CC1 | inactive
Cc1ccccc1CN1CCN(c2nc3ccccc3s2)CC1 | active: 20.6 µM
Cc1cc(F)ccc1NC(=O)Nc1ccc2c(c1)OCO2 | inconclusive: 16.4 µM [activator, single point]
COc1ccc(S(=O)(=O)N2CCN(Cc3cc(=O)n4ccccc4n3)CC2)cc1 | inactive
O=C1c2ccccc2C(=O)C1c1ccncc1 | active: 3.16 µM
CC(C)C[C@H](NC(=O)OC(C)(C)C)C(=O)N[C@@H](CO)[C@H](O)[C@@H]1C[C@@H]1C(=O)N1CCCC1 | inactive
Cc1ccc(S(=O)(=O)N2CCN(Cc3csc(C)n3)CC2)cc1 | inactive
O=C(Nc1ccccc1C(=O)O)c1ccc(Br)o1 | inconclusive: 18.4 µM [activator, single point]
c1ccc(CSc2ccc(-c3ccco3)nn2)cc1 | active: 8.2 µM
CCOC(=O)c1sc(NC(=O)c2ccc3ncsc3c2)nc1C | active: 2.31 µM
O=C(c1ccc(Oc2ccccc2)cc1)c1nc2c(n1O)CCCC2 | inconclusive: 20 µM [activator, single point]
O=C(O)c1cc(O)ccc1NC(=O)C1CCCO1 (centres undefined) | inactive
C=CCn1c(NCc2ccc(N(C)C)cc2)nc2ccccc21 | inactive
N/C(=N\OC(=O)c1ccc(Br)cc1)c1ccccc1 | inconclusive: 2.59 µM [activator, full curve]

Structure (SMILES) | Potency
Cc1ccc(C(=O)NCCc2csc(C)n2)cc1 | active: 18.4 µM
COc1cccc(-c2ccc(NC(=O)C3CCCN(CCCn4nc(C)cc4C)C3)cc2)c1 (centres undefined) | inactive
Cc1cccc(C)c1NC(=O)CNC(=O)C(C)N(C)CC(=O)Nc1ccc(F)cc1 (centres undefined) | inactive
COc1cc(OC)c2c(C)cc(=O)oc2c1 | inconclusive: 20.6 µM [activator, partial curve, poor fit]
CCSc1nnc(NC(=O)c2cc(C)on2)s1 | inconclusive: 18.4 µM [activator, partial curve, poor fit]
COc1cccc(/C=C/c2ccc3cccc(O)c3n2)c1OC | active: 18.3 µM
CC(=O)N1CCCc2ccc(NS(=O)(=O)c3ccccc3)cc21 | inconclusive: 25.9 µM [activator, partial curve, poor fit]
O=C(Nc1ccccc1-c1ccccc1)c1ccc(Cl)c([N+](=O)[O-])c1 | inconclusive: 32.6 µM [activator, partial curve, poor fit]
Cc1ccc(C(=O)Nc2ccc3c(c2)OCCO3)o1 | active: 3.26 µM
CN(C)c1nc(OCCNC(=O)COc2ccc(Cl)cc2Cl)nc(N(C)C)n1 | inactive
COc1cccc2cc(C(=O)N3CCc4ccccc43)c(=O)oc12 | inconclusive: 20.6 µM [activator, partial curve, poor fit]
O=C(Nc1nccs1)c1ccc(F)c(S(=O)(=O)N2CCOCC2)c1 | inactive
CC(C)c1cc(C(=O)N2CCCC(Nc3ccc(F)cc3)C2)n[nH]1 (centres undefined) | inactive
Cc1ccc(NC(=O)CSc2ccc(C(N)=O)cc2[N+](=O)[O-])cc1 | inconclusive: 23.1 µM [activator, partial curve, poor fit]
O=C(C1COc2ccccc2O1)N1CCc2ccccc21 (centres undefined) | inconclusive: 7.31 µM [activator, partial curve, poor fit]
COc1ccc(S(=O)(=O)N(CC(=O)NN=C2CCN(C)CC2)c2cc(Cl)ccc2OC)cc1OC | inactive
COc1ccc(C(=O)NCCC2=CCCCC2)cc1 | active: 1.46 µM
O=c1c2ccccc2nc(SCc2nc3ccccc3s2)n1CCCO | inconclusive: 13 µM [activator, partial curve]
CCN=C1NN=C(c2cc(C)n(CCc3ccccc3)c2C)CS1 | inconclusive: 23.1 µM [activator, single point]
COC(=O)c1sc(-c2cccs2)cc1N | inconclusive: 20.6 µM [activator, partial curve, poor fit]
O=C(O)c1cc(N/N=C/c2ccc(N3CCOCC3)cc2)ccc1Cl | inconclusive: 2.59 µM [activator, single point]
Cc1c(C)c2ccc(OS(C)(=O)=O)c(C)c2oc1=O | inconclusive: 16.4 µM [activator, partial curve, poor fit]
COC(=O)[C@@H]1CCCN1C(=O)CCc1nnc(CCC2CCCCC2)o1 | inconclusive: 18.3 µM [activator, partial curve]
COC(=O)c1cc(-c2ccc(C)cc2)n[nH]1 | inconclusive: 23.1 µM [activator, partial curve, poor fit]
